The values below come from the RNAGym collection of RNA variant scans (doi:10.7554/elife.90254).

The chains are these.
B1: OR4K15 (parent)
chain: GUUAACGGUCAUAGGCCAUGGAAACUAGGAGCACCAUUUCGCUGCCAGUGAAGAAAUGAACAAAGAAAAUCUGGGCCAGGCAGGCAUCAAAAGAAAUAGUCUUGCGCUCAACCAGAAAGUCUGUAAUCAUUUUAAGGGUA

Read counts are not given, so values of variants with three or more changes are uncertain.

The data set covers variants of B1. The data set is described as follows: self-cleavage, relative activity (ratio to wild type); higher = more cleavage; in vitro, sequencing; the parent is a self-cleaving ribozyme.
With C46U A52G U100C, the self-cleavage amounted to 1.53.

Consider U49C A98G A117G, for which the self-cleavage was 0.46.

In the case of U49C A63G U100C, the self-cleavage is 2.83.

For the variant U43C G50U A51G A69U A86G, the self-cleavage amounted to 0.42.

With U49C A63G A126G, the self-cleavage worked out at 1.32.

As to U49C A68U A95G U122A G138U, the self-cleavage was 2.6.

As for A47G A59G A78U A96U, the self-cleavage was found to be 0.15.

Consider U49C A66C G74A U87C, for which the self-cleavage stood at 0.05.

Regarding A47U A56G G73A G84A, the self-cleavage is 0.17.

For U49C A82G A86G U97C, the self-cleavage was determined as 0.11.

Consider C46U A56G A94U A95G C105U A129C, for which the self-cleavage is 0.18.

As for A47U A78C U108A, the self-cleavage turned out to be 0.01.

As for U49C A68G U124C, the self-cleavage is 0.57.

Consider U43C A92G A126G, for which the self-cleavage came out at 0.34.

For C46U U57C U100C U122C, the self-cleavage was 2.13.

Regarding U49G U100C A110C, the self-cleavage is 0.62.

As to U43C A118G A125G A129G, the self-cleavage amounted to 0.07.

Regarding C46U U102C G104A, the self-cleavage is 0.03.

A47G A66G A82G A140G: the self-cleavage came out at 0.8.

Regarding U49C A59U A91G, the self-cleavage stood at 0.73.

Consider C46U C77U A91G A96U, for which the self-cleavage was 1.49.

As for A47U U57G A69G A89C A110G A116G A134G, the self-cleavage turned out to be 0.

For the variant U49C A55G A56G U87A A135G, the self-cleavage came out at 0.94.

Regarding A47U A52G A78U G84A A90G, the self-cleavage worked out at 0.91.

Regarding U49C A94C A116G, the self-cleavage stood at 0.2.

For the variant U49C A51G A69G U72C U103C U132C, the self-cleavage amounted to 0.06.

U49A U57A A82U A95G A96G U97A U100C: the self-cleavage is 0.44.

In the case of U43C U100C U108C A117U, the self-cleavage was determined as 0.02.

With A47U A94G A129C A135G, the self-cleavage worked out at 0.2.

For the variant U49C A67G A91G, the self-cleavage is 0.57.

For the variant A47G G106U U131C, the self-cleavage worked out at 0.

With U49A A64U A68G, the self-cleavage came out at 0.88.

Turning to A47G A125U A135G, the self-cleavage stood at 0.33.

C46U A62G A94G A129G: the self-cleavage worked out at 1.57.

Regarding A47U A59G A67U U122C, the self-cleavage turned out to be 0.68.

In the case of U43C A116U U131C, the self-cleavage worked out at 0.33.

With A47C G50A A82G A89C, the self-cleavage is 0.27.

On to C46A G74C A89G A126U, for which the self-cleavage was 0.14.

Turning to U49C A96G U102A U122C, the self-cleavage came out at 0.38.

Regarding A47U U87C A95G, the self-cleavage came to 1.15.

Take A47G A82G A91U A94G U131C: the self-cleavage came to 0.61.

Regarding U49C A94G U103C, the self-cleavage worked out at 1.32.

On to A47U A62G A63G A68G A86G A111G A114G, for which the self-cleavage was found to be 0.01.

Regarding U49C A94G U97C, the self-cleavage was 1.05.

Turning to A47U U70C A78C A117G U127C, the self-cleavage stood at 0.09.

Consider U43C C45U A51G A54G, for which the self-cleavage came to 1.97.

Turning to A47G U49C A78C U108C, the self-cleavage was 0.01.

Turning to C45U A111G U132A, the self-cleavage stood at 0.04.

C46A U72A A78U: the self-cleavage stood at 0.07.

For U49C A62G A82U A90G A110G U130C, the self-cleavage amounted to 0.

U49G A114G U127C U139C: the self-cleavage was found to be 0.04.

In the case of A47G A95G A96G, the self-cleavage stood at 0.94.

For the variant U43C U49C A64G, the self-cleavage turned out to be 1.71.

For C46A A89G U131C, the self-cleavage came out at 1.53.

In the case of U49C A60U A98G A135G, the self-cleavage turned out to be 0.55.

As to A47G A78U U130A, the self-cleavage was found to be 0.12.

For U49C A51U U103C, the self-cleavage turned out to be 0.29.

For U49C A66G A69G A114U A118G, the self-cleavage worked out at 0.

Take A47G A59G A63U A68G: the self-cleavage stood at 1.11.

Turning to G44U A56C A86C A89G, the self-cleavage came to 0.36.

Take A47G A60G A64G A92G A95G U102C U122C U132G: the self-cleavage is 1.7.

Regarding U49C A55G A68G U87C A94G A95G A118G, the self-cleavage stood at 0.49.

Take A47U A54G A68G A78G U102C A117G: the self-cleavage is 0.23.

In the case of U49C U57A A114G, the self-cleavage came to 0.13.

For the variant U49C A56G C105U U120G U122C U130C A140U, the self-cleavage worked out at 0.03.

Turning to U49A A69G A86G, the self-cleavage stood at 1.61.

In the case of U43C U102C A140G, the self-cleavage was found to be 1.09.

Regarding A47G A62G A63G, the self-cleavage was 1.78.

For the variant A47C U97C U108C, the self-cleavage worked out at 0.01.

With C45A A68G A78G A89G, the self-cleavage was found to be 0.29.

Regarding U49C A52G A59G U70C U122C A129G, the self-cleavage was determined as 0.16.

Regarding A47C A51G A117G U127C U132C, the self-cleavage was 0.46.

Turning to A47G G58A A86G U102C, the self-cleavage worked out at 1.27.

As for U49A A55G A63G A111G, the self-cleavage was determined as 0.16.

As to A47G G79U U87C, the self-cleavage stood at 0.13.

In the case of U43C U70C A95G, the self-cleavage is 0.41.

Consider A47G A92G U103C, for which the self-cleavage came to 0.18.

Turning to U49C A91G A111G, the self-cleavage amounted to 0.01.

U43C U57C A64G A89G: the self-cleavage came out at 1.22.

For U43C C77U A94G U124A, the self-cleavage was found to be 0.76.

Regarding A47G A95G A140U, the self-cleavage amounted to 1.57.

For A47G A51U A114G U132C, the self-cleavage was 0.12.

Turning to A47G A67G A82G U120C, the self-cleavage came to 0.27.

Consider U49C A52G A63G A118G, for which the self-cleavage amounted to 1.25.

Take A47U A89G A91G: the self-cleavage was determined as 0.92.

As for A47G A51U U132A, the self-cleavage is 0.6.

For the variant U49C U72C U122C, the self-cleavage is 0.02.

On to U43C A116G U127A, for which the self-cleavage was determined as 1.01.

For the variant C46U U87C A135G, the self-cleavage came to 1.17.

Regarding A47G A68G A89G A111G, the self-cleavage amounted to 0.02.

Turning to U49C A78G A96G, the self-cleavage turned out to be 0.15.

Regarding U49C A62G A64U A95G, the self-cleavage was 1.2.

In the case of A47G U87A A110G U133G A134G, the self-cleavage was 0.09.

For U49A A56C A129G, the self-cleavage stood at 1.02.

U49C A66G A92G U103A: the self-cleavage was found to be 0.42.

Turning to G48A A95G A134G, the self-cleavage was 1.46.

Turning to U49C A51G U57C A60G U132C, the self-cleavage is 0.89.

A47G G75U A126G: the self-cleavage came out at 0.06.

For the variant A47U U57G A86G, the self-cleavage stood at 1.43.

Take A47U A91G U108C: the self-cleavage was 0.02.

Consider A47G A67U U108C, for which the self-cleavage came out at 0.01.

On to C46U G79U U100A, for which the self-cleavage worked out at 0.03.

As to G50A A51C A55G U87C, the self-cleavage turned out to be 1.09.

Consider G44U G104A U124C, for which the self-cleavage worked out at 0.02.

On to U49G U57C A91G A94G, for which the self-cleavage stood at 0.74.

Consider U49C A51C A69U U122C, for which the self-cleavage came to 0.08.

As to C45U A51G U108C A118G, the self-cleavage was 0.

For the variant U49C A54G A95G A110G, the self-cleavage is 0.16.

U49G A78C U131C: the self-cleavage came to 0.12.

As for U43G A64G A117G U130A U131G, the self-cleavage is 2.85.

A47G U87C A91G: the self-cleavage was 0.35.

For A47U A60G A62G U108C, the self-cleavage is 0.01.

Turning to U49C U57C U70C, the self-cleavage stood at 0.31.

Take A47G A67G U72G G115A A116U: the self-cleavage worked out at 0.01.

A47U A126G U127C: the self-cleavage was found to be 0.21.

Consider A47U A62G A69C A96G, for which the self-cleavage stood at 0.46.

U49C A52G C71U A90U A129G: the self-cleavage is 0.13.

For G48A A60C U87C U97C, the self-cleavage came out at 0.9.

For G48A A94U G138C, the self-cleavage was found to be 1.75.

With U49C A52G A59G A66G A140G, the self-cleavage came out at 1.06.

As for U49A U132C U139C, the self-cleavage is 0.94.

Take A47U A89G A117G A134G: the self-cleavage was 0.47.

U49A A51U A110G: the self-cleavage stood at 0.24.

As for U49A A60G C81U, the self-cleavage is 0.27.

Turning to U49A A54U A94G A95G, the self-cleavage worked out at 1.6.

For C45U G50U U108C, the self-cleavage was 0.02.

In the case of U43C A95G A110G, the self-cleavage came to 0.16.

On to U49A U102A A110G, for which the self-cleavage amounted to 0.07.

U49C A67G A96G A98G: the self-cleavage turned out to be 0.29.

Regarding C45U A98G U122C A125G, the self-cleavage is 0.14.

U49A A92G U103C: the self-cleavage came to 0.79.

Turning to U43C U103C U108C, the self-cleavage came out at 0.

For A47G U103C A117G U124C, the self-cleavage stood at 0.35.

For the variant G44C A63U U132C, the self-cleavage came to 2.38.

On to U43C A114U U132C, for which the self-cleavage was determined as 0.03.

As for A47G A52U A117G, the self-cleavage was 2.49.

Regarding U43C U72C A110G, the self-cleavage turned out to be 0.08.

For the variant U49C A94G A126G, the self-cleavage came to 1.01.

As to A47U A67G U127C U139A, the self-cleavage was determined as 0.23.

Take U49C A94G A96G: the self-cleavage stood at 1.33.

As for A47U A69U U87C, the self-cleavage came out at 0.69.

Turning to U49C A110G A140G, the self-cleavage came out at 0.08.

Take A47G A56G A126U: the self-cleavage was found to be 0.67.

As for A47G A96G A118G, the self-cleavage was 0.71.

A47C G79A U87C: the self-cleavage came to 0.11.

Take U49C A55G A135U: the self-cleavage turned out to be 1.58.

U43C U49A A69U U122A: the self-cleavage stood at 1.27.

As to U43C U57C A114U, the self-cleavage is 0.02.

U49C A55G U131C: the self-cleavage came out at 1.55.

Consider U49C U87A U102A, for which the self-cleavage worked out at 1.06.

For U49C U57C A89U U131C, the self-cleavage worked out at 0.71.

As for A47U A52U A78G, the self-cleavage amounted to 0.09.

Turning to U49C A52G U100G A117G, the self-cleavage is 1.51.

In the case of G50A A52G A89U, the self-cleavage was found to be 1.84.

For G44A U57C U87C U122C, the self-cleavage is 0.42.

Turning to U49C A64G A86U A94G, the self-cleavage worked out at 1.45.

Turning to U49A A63G U70C G106A U124C, the self-cleavage was found to be 0.01.

Turning to A47G A56G U103A U122C, the self-cleavage is 0.12.

With C45U U120C U124C, the self-cleavage worked out at 0.19.

With A47G A78G A92G A98G U103C, the self-cleavage is 0.06.

As for A47U A96U U130C, the self-cleavage was 0.22.

A47U U57C U108C: the self-cleavage came to 0.01.

For the variant U49A U102C A134U, the self-cleavage was found to be 2.79.

Take U43G A66U C113U: the self-cleavage was determined as 0.07.

Turning to A47G A55U A78U A111G, the self-cleavage is 0.03.

On to A47G A55G A111G, for which the self-cleavage was 0.03.

Consider A47U A60G U87C, for which the self-cleavage is 0.53.
